Experimental data taken from PMC4336329 (PLoS ONE, 2015).
Screen size: about 310,000 compounds; about 2,200 (0.71%) showed an effect of 50% or more. Effects have a minus sign here. The list shows a part of the results.

target: human ether-à-go-go-related gene (hERG) potassium channel (human, UniProt Q12809); assay: primary screen, population patch clamp on CHO cells stably expressing hERG
Sequence (Q12809 whole entry, looked up): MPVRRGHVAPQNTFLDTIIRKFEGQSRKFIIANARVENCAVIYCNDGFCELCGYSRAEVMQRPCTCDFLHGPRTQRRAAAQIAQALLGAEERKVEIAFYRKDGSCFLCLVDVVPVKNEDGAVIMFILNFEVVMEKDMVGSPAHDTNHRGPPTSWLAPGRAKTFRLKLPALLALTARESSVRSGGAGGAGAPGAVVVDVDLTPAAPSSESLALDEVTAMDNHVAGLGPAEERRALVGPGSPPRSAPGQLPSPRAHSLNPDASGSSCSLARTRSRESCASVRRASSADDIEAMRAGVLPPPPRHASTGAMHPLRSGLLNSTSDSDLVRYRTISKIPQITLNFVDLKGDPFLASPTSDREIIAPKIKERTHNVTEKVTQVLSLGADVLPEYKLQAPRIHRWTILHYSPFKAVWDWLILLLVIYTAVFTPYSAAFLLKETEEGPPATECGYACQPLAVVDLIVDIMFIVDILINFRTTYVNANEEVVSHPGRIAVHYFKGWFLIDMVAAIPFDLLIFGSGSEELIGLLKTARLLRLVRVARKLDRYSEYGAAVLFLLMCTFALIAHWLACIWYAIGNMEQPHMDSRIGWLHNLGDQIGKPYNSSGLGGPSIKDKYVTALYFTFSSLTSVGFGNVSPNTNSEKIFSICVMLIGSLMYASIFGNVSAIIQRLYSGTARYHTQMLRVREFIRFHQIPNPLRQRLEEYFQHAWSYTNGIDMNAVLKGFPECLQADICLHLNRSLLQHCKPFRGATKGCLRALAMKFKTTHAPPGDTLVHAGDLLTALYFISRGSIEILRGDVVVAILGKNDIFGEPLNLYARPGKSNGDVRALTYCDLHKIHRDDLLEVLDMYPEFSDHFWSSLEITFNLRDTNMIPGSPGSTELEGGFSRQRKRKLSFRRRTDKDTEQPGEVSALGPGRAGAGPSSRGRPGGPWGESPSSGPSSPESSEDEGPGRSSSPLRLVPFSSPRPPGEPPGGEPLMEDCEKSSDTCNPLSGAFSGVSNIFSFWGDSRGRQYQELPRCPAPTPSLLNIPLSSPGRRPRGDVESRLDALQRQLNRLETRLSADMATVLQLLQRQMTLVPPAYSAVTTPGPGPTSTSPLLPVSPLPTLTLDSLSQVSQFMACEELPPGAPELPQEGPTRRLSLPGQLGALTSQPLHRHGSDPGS

SMILES | hERG current change (%, negative = inhibition) at 1uM
O=C(O)c1ccc2c(c1)C(=O)/C(=C\c1ccco1)C2=O | -0.191%
Cc1cc(C)c(O)c(-c2cc(C(=O)Nc3ccc(S(=O)(=O)N4CCOCC4)cc3)[nH]n2)c1 | 1.78%
COC(=O)[C@@H]1[C@@H](C)N(Cc2ccccc2)C(=O)N[C@H]1c1cccc(C(F)(F)F)c1 | 13.8%
CCSCc1nnc(SCC(=O)Nc2nc3ccccc3s2)n1C | 0.904%
CCOC(=O)C1=C(C)NC(=O)/C1=C\N(C)C | 10.8%
CCN(CC)S(=O)(=O)c1ccc(N2CCOCC2)c(NC(=O)Cc2ccccc2)c1 | -18.5%
CCc1nnc(NC(=O)CSc2nnc(-c3ccc(O)cc3)n2C)s1 | 12.8%
O=C(Oc1c(Br)cc([N+](=O)[O-])cc1Br)c1cccnc1 | 12.8%
COc1ccc(-c2cc(C3CC3)nc3sc(C#N)c(N)c23)cc1 | 9.96%
O=C(c1ccc2c(c1)ncn2C1CCCCCC1)N1CCC2(CC1)OCCO2 | -1.61%
O=C(Nc1ccc(F)cc1)Nc1ccc(Oc2ncnc3cc(Cl)ccc23)nc1 | 10.5%
Cc1csc(NC(C)c2nc3cc(C(F)(F)F)ccc3n2CCCO)n1 (stereo not shown) | 7.5%
CCC(=O)c1ccc(OCC(O)CN2CCN(S(=O)(=O)c3ccc(NC(C)=O)cc3)CC2)cc1 (stereo not shown) | 8.57%
CCC(C)c1ccc(O)c(N)c1 (stereo not shown) | 10.8%
CC(C)CN(CC(C)C)C(=O)C12CCC(C)(C(=O)C1)C2(C)C (stereo not shown) | 6.63%
COc1ccc(CCNC(=O)c2c(C)nn(CC(C)C)c2Cl)cc1 | 12.2%
Cc1cc(NC(=O)c2cc(C(C)(C)C)oc2C)no1 | 10.1%
COC(=O)c1c(-c2ccc(OC)cc2)oc2ccc(-c3ccc(OC)nc3)cc12 | 10.7%
COc1cccc(NC(=O)C(=O)N/N=C/c2ccc3c(c2)OCO3)c1 | 9.92%
CCc1ccccc1NC(=O)C/C(C)=N/NC(=O)COc1ccccc1C | 10.3%
NS(=O)(=O)c1ccc(CNC(=O)c2cc(=O)c3cc(Cl)ccc3o2)cc1 | 8.09%
CCOC(=O)N1CCC(NC(=O)c2oc3c(C)c(C)ccc3c2C)CC1 | -6.31%

SMILES | hERG current change (%, negative = inhibition) at 1uM
CCn1c(/C=C/c2ccccc2F)nc2ccccc2c1=O | 14.6%
Clc1cccc2sc(N3CCCCC3)nc12 | 15.8%
O=C(NC1CCCC1)c1cc(S(=O)(=O)N2CCCC2)ccc1Cl | 5.71%
O=C1OCCN/C1=C\C(=O)c1ccc(Cl)cc1 | 12.1%
CCn1cc(C(=O)N2CCCC(C(=O)c3ccc4ccccc4c3)C2)cn1 (stereo not shown) | 1.11%
Cc1sc2ncnc(N3CCC(C(=O)Nc4ccc(F)cc4Cl)CC3)c2c1C | 16.3%
Cc1cc(C(=O)CCC(=O)N2CCN(S(=O)(=O)c3ccccc3)CC2)c(C)s1 | 10.4%
Cc1ccc(-c2nc(CN3CCN(c4cnccn4)CC3)c(C)o2)o1 | 9.15%
Cc1cccc(OCC(=O)Nc2ccc3oc(=O)ccc3c2)c1 | 32.6%
CCOC(=O)NCc1cc(-c2nn(C)c(=O)c3ccccc23)ccc1C | 8.38%
COc1ccc(Oc2nc3c(C)cccn3c(=O)c2/C=C(\C#N)C(N)=O)cc1 | 3.93%
COc1ccc(C(=O)Nc2ccc(NC(=O)c3ccccc3)cc2)cc1S(=O)(=O)N1CCOCC1 | 16%
C=CCn1c(=O)c2ccc(C(=O)NCc3ccccc3)cc2n(Cc2ccc(Cl)cc2)c1=O | 2.33%
CCCCC(=O)Nc1cccc(NC(=O)c2ccc3c(c2)OCO3)c1 | 5.36%
Cc1ccc(NC(=O)c2cc(NC(=O)c3ccccc3C(=O)O)ccc2N2CCCCC2)cc1 | 17%
CCN(Cc1ccccc1)C(=O)Cn1c(=O)n(CC(=O)NCc2ccco2)c(=O)c2sccc21 | -10.8%
O=C(c1cccc(F)c1)N1CCCC(C(=O)N2CCCCCC2)C1 (stereo not shown) | 15.9%
COc1ccc(/C(C)=N/NC(=O)c2ccccc2N)cc1 | -3.53%
COc1ccnc(CSC(N)=Nc2cccc(C(F)(F)F)c2)c1 | -2.06%
CC1Cc2ccccc2N1C(=O)COC(=O)Cc1ccc(F)cc1 (stereo not shown) | 4.75%
Cc1nnn(-c2nonc2N)c1C(=O)N/N=C/c1cccc2ccccc12 | -0.425%
O=C(CCn1cccc1)NCc1ccc(Cl)cc1 | 6.13%

SMILES | hERG current change (%, negative = inhibition) at 1uM
Br.O=C(CN(Cc1ccccc1)C1=NCCS1)c1ccccc1 | -5.07%
O=C(COC(=O)c1ccccc1)Nc1cccc(S(=O)(=O)NC2=NCCCCC2)c1 | 20.6%
CCN(CC)S(=O)(=O)c1cc(NC(=O)c2cc(-c3ccccn3)nc3ccccc23)ccc1C | 19.9%
O=C(c1cn(-c2ccccc2)nc1-c1ccncc1)N1CCCCC1 | -0.0019%
CN(C)CCCNCCCNC(=O)/C(=N\O)c1ccccc1 | 7.37%
O=C1CNC(=O)N1CC(=O)N1CCCc2ccccc21 | 1.69%
c1ccc(-c2nnnn2CCOCCn2nnnc2-c2ccccc2)cc1 | 9.77%
Cc1ccccc1C(=O)NCCNC(=O)c1cnccn1 | 9.2%
CC1(C)C2CCC1(C)C(OC(=O)C[n+]1ccccc1)C2.[Cl-] (stereo not shown) | 16.8%
Fc1ccccc1NC(=S)NNc1ncc(C(F)(F)F)cc1Cl | 15%
CCCCN(c1ccccc1)S(=O)(=O)c1cccc(C(=O)O)c1 | 5.27%
COc1ccc(CN(CC2CCC(C(=O)O)CC2)C(=S)Nc2ccc(C)c(Cl)c2)cc1 (stereo not shown) | 12.5%
CN(C(=O)COC(=O)C(Cc1ccccc1)NC(=O)c1ccccc1)c1ccccc1 (stereo not shown) | 6.68%
COc1ccc(OC)c(NC(=O)Cn2c(CCC(=O)O)ccc2-c2cccs2)c1 | 8.9%
CC(C)(O)[C@@H]1[C@@H]2C[C@@]3(CC[C@]4(C)C(CCC5[C@@]6(C)CC[C@H](O)C(C)(C)C6CC[C@]54C)[C@@H]13)C(=O)O2 (stereo partly shown) | 8.97%
CN(C)S(=O)(=O)c1ccc(C(=O)N2CCOCC2)cc1 | 14.1%
Cc1cc(C)cc(OC(=O)c2cccnc2)c1 | 11.8%
COC(=O)CSc1ccc2c(N)c(C(=O)OC)sc2c1 | 4.25%
CN(C(=O)Cc1noc2ccccc12)c1ccccc1 | 19.5%
COc1cc(C2C(C#N)=C(N)Oc3cc(C)n(CCc4ccccc4)c(=O)c32)cc2c1OCO2 (stereo not shown) | 4.34%
COc1ccc(CC(=O)Nc2ccc(C(=O)Nc3ccccc3C(=O)O)cc2)cc1OC | 11.9%
Cc1ccc(C(=O)NCC(=O)OCC(=O)NCC(F)(F)F)cc1 | 7.57%

SMILES | hERG current change (%, negative = inhibition) at 1uM
CC1(C)CC(=O)C(C=NC2CC(C)(C)NC(C)(C)C2)=C(O)C1 | 9.28%
O=C1NC(=O)N(Cc2ccccc2)C(=O)/C1=C\N1CCCc2ccccc21 | 1.69%
S=C(NCCc1ccccc1)N/N=C/C1CCCCC1 | 9.53%
COc1ccccc1NC1C=CS(=O)(=O)C1 (stereo not shown) | 2.92%
O=C(COC(=O)[C@@H]1CCCN1S(=O)(=O)c1ccc(Cl)cc1)NC12CC3CC(CC(C3)C1)C2 | 0.824%
Cc1nnc(SCC(=O)NC(C)(C)C)n1NCc1ccc(Cl)cc1 | 1.77%
CCOC(=O)CSCc1nc(-c2ccc(Cl)cc2)oc1C | 11.5%
CSCCC(NC(N)=O)C(=O)NCC1CCCCC1 (stereo not shown) | 10.8%
Cc1cccc(Nc2nc(N)nc(CSC(=S)N3CCOCC3)n2)c1 | 0.164%
CCN(Cc1nc(-c2ccccc2)no1)C(=O)COc1cccc(OC)c1 | 10.1%
Cc1ccc(NCC(=O)c2ccc([N+](=O)[O-])cc2)cc1 | -9.69%
O=C(O)/C=C/C(=O)c1c(-c2ccccc2)[nH]c2ccccc12 | 17.4%
O=C(Nc1ncc(Cc2ccc(SC(F)F)cc2)s1)c1ccccc1 | 15.3%
O=C1C(C=NCCCN2CCCC2=O)=C(O)c2ccccc21 | 19.3%
CCOc1cc2[nH]c(=S)n(C(C)C)c(=O)c2cc1OCC | 6.12%
CN(C)C(=O)C(OC(=O)c1ccc2c(c1)CCCC2)c1ccccc1 (stereo not shown) | 14.6%
Fc1cccc(Cl)c1Cn1nnc2c(-n3ccnc3)ncnc21 | 8.45%
CN(Cc1cnn(C)c1)S(=O)(=O)c1cccc([N+](=O)[O-])c1 | 13.1%
CCC(Sc1nc2cc3c(cc2c(=O)n1Cc1ccco1)OCO3)C(=O)Nc1cccc(OC)c1 (stereo not shown) | -2.71%
Cc1sc2ncnc(OCC(=O)c3ccc(S(=O)(=O)N4CCCC4)cc3)c2c1C | 5.91%
CCC1CCc2sc(C(=O)O)cc2C1 (stereo not shown) | -1.93%
CC(C)CNS(=O)(=O)c1cc(C(=O)OCC(=O)N2CCOCC2)c(Cl)cc1Cl | 8.83%
